PubChem BioAssay AID1477 (National Center for Advancing Translational Sciences (NCATS), 2009)
In all, about 230,000 compounds went through this assay and fewer than 10 were called active. The inconclusive results got no clear call from the source; some entries with a clear call stand among them for comparison. The call rests on the fitted dose curve; in most records, active means well fitted curve in the direction sought with a large enough effect; inconclusive means small, poorly fitted or top-dose-only effect, or effect the other way, or another doubt; inactive means no such curve, though single readings can be large or run the other way. Potencies of inconclusive entries are left out as doubtful fits.

The compounds below were run against Runt-related transcription factor 1 (Homo sapiens) + Core-binding factor subunit beta (Homo sapiens) (UniProt Q01196+Q13951) (assay: qHTS Assay for Compounds Blocking the Interaction Between CBF-beta and RUNX1 for the Treatment of Acute Myeloid Leukemia). Conditions: AlphaScreen CBFb-His/RUNX1-biotin binding, biochemical; activity, negative = inhibition: at 59.8 µM (top of the series) unless noted.
Summary of the method: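 Read-out: AlphaScreen. Format: His-CBF-beta with biotinylated RUNX1 (30 nM each) preincubated 20 min, compound 15 min, Ni-chelate plus streptavidin beads 90 min; room temperature throughout.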
Wherever activity, negative = inhibition is given: % of control where 0% means no effect.

Sequence of UniProt Q01196 (Q01196 whole entry, looked up): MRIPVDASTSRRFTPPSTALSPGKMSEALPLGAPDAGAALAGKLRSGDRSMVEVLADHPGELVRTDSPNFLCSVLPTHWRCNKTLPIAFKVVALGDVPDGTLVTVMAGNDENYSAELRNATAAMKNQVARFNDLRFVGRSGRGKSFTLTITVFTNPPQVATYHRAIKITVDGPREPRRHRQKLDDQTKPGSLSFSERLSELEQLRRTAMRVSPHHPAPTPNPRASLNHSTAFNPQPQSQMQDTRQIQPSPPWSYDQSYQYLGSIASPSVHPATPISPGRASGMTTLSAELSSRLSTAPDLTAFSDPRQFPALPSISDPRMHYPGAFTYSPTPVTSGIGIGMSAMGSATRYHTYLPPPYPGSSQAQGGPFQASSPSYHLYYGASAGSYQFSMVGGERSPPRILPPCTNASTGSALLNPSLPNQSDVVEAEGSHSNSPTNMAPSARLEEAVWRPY
Sequence of UniProt Q01196 (Q13951 whole entry, looked up): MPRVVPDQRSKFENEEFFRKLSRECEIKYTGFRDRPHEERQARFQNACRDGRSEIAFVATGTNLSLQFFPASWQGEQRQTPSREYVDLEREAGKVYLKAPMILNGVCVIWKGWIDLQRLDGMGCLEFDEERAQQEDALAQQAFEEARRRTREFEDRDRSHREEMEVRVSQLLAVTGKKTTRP

| Compound | Potency | activity, negative = inhibition |
| --- | --- | --- |
| CSc1nsc(SCC(=O)Nc2nncs2)n1 | inconclusive [inhibitor, single point] | – |
| CCCc1cc(=O)[nH]c(SCc2ccccc2Cl)n1 | – | inactive: -0.319% |
| O=C(CN1CCN(S(=O)(=O)/C=C/c2ccccc2)CC1)NC(=O)NCc1ccco1 | inconclusive [inhibitor, single point] | – |
| COc1cccc(N2C(=O)NC(=O)/C(=C\c3ccc([N+](=O)[O-])s3)C2=O)c1 | inconclusive [inhibitor, single point] | – |
| Cc1csc(SCC(=O)c2cc(C)n(Cc3cccs3)c2C)n1 | – | inactive: -12.2% |
| CC(C)CCn1c(N)c(S(=O)(=O)c2cccs2)c2nc3ccccc3nc21 | inconclusive [activator, partial curve] | – |
| FC(F)(F)c1cnc(COc2cc(Cl)cc(Cl)c2)c(Cl)c1 | inconclusive [activator, partial curve] | – |
| Cc1ccn2c(Nc3ccc4c(c3)OCO4)c(-c3ccc(O)cc3)nc2c1 | inconclusive [inhibitor, single point] | – |
| CC(C)(O)[C@H](O)COc1c2ccoc2cc2oc(=O)ccc12 | inconclusive [inhibitor, single point] | – |
| Oc1ccc(NC(=S)N=Nc2c(O)[nH]c3ccc(Br)cc23)cc1 | inconclusive [inhibitor, single point] | – |
| CCC(NC(=O)c1ccc(C#CC2(O)CCCCC2)cc1)C(=O)O (configuration not stated) | inconclusive [activator, full curve] | – |
| O=C(CN1CCC(NC(=O)c2ccco2)CC1)Nc1ccccc1[N+](=O)[O-] | – | inactive: -4.82% |
| Cc1ccc(F)c(C2C3C=CCC(C)C3C(=O)N2Cc2ccccc2)c1 (configuration not stated) | inconclusive [activator, single point] | – |
| COc1cc(/C=N/Nc2nc(Nc3ccccc3)nc(N3CCCCC3)n2)ccc1OCC(=O)O | inconclusive [inhibitor, partial curve] | – |
| O=C(NC(=S)Nc1ccc(N2CCOCC2)cc1)c1ccc2c(c1)OCCO2 | inconclusive [inhibitor, single point] | – |
| CCCCC[C@H](O)C/C=C1/C(=O)C=C[C@@H]1C/C=C\CCCC(=O)O | inactive | – |
| CC(C)(C)NC(=O)C(=O)NC(=O)c1c(F)cccc1Cl | inconclusive [inhibitor, single point] | – |
| COc1ccccc1Cc1noc(COc2cccc(C)c2C)n1 | inconclusive [activator, partial curve] | – |
| Cc1csc(NC(=O)c2cc(=O)[nH]c3ccc(S(=O)(=O)N4CCOCC4)cc23)n1 | inconclusive [inhibitor, single point] | – |
| NS(=O)(=O)c1ccc(NCc2cc(Cl)ccc2OCc2ccc(F)cc2)cc1 | inconclusive [inhibitor, single point] | – |
| O=C(Nc1ccc(N2CCOCC2)cc1)c1ccc(-c2ccccc2[N+](=O)[O-])o1 | inconclusive [inhibitor, single point] | – |

| Compound | Potency | activity, negative = inhibition |
| --- | --- | --- |
| Cc1ccc(Cl)cc1N1CCN(c2cccc[n+]2C)CC1 | – | inactive: -4.17% |
| CC(=O)C1=C(C)NC2=C(C(=O)c3ccccc32)C1c1ccccc1 (configuration not stated) | inconclusive [inhibitor, single point] | – |
| COc1ccc(S(=O)(=O)Nc2ccc(F)c(F)c2)cc1Cl | – | inactive: 22.4% |
| CC(C(=O)N1c2ccccc2CCc2ccccc21)n1nnc(-c2ccc(N(C)C)cc2)n1 (configuration not stated) | inconclusive [inhibitor, partial curve] | – |
| COC(=O)c1sc2nc(-c3ccco3)ccc2c1N | inconclusive [inhibitor, single point] | – |
| COC(=O)[C@@H]1[C@@H](C(=O)OC)C2(c3ccccc3-c3ccccc32)N(c2ccc(Cl)cc2)N1C#N | inconclusive [inhibitor, single point] | – |
| Clc1ccc(OCCSc2ncccn2)c2ccccc12 | inconclusive [activator, partial curve] | – |
| Cc1ccc2nc3c(cc2c1)c(NC(=O)c1ccccn1)nn3CC(C)C | inconclusive [activator, partial curve] | – |
| CN(C)S(=O)(=O)c1cccc(NC(=O)c2ccc(Sc3nncn3C)c([N+](=O)[O-])c2)c1 | inconclusive [inhibitor, single point] | – |
| CCOc1ccc(-n2c(-c3ccc(OC)cc3)c[n+]3c2CCCCC3)cc1 | – | inactive: 1.46% |
| CC(NC(=O)CCc1nnc(-c2ccc(-c3ccccc3)cc2)o1)c1nccs1 (configuration not stated) | – | inactive: 0.724% |
| COc1cccc(/C=N/Nc2nc(Nc3ccccc3)nc(-n3nc(C)cc3C)n2)c1O | inconclusive [inhibitor, partial curve] | – |
| O=C(c1cc([N+](=O)[O-])ccc1Cl)N1c2ccccc2Sc2ccccc21 | inconclusive [inhibitor, partial curve] | – |
| CON1C(=O)C(=O)N(OC)C(C)(C)C1(C)C | – | inactive: 13.6% |
| C#CCOCCOCCOCCNc1nc(N2CCN(C(=O)[C@H]([C@@H](C)CC)n3cc(CCCN=C(N)N)nn3)CC2)nc(N2CCN(C(=O)[C@H](CCCCN)n3cc(CCC(=O)O)nn3)CC2)n1 | – | inactive: 8.1% [at 2.36 µM] |
| CCC[N+]1(CC#CC(O)(c2ccccc2)C2CCCCC2)CCCCC1 (configuration not stated) | – | inactive: 16.8% |
| CCN1CCN(CC(=O)N2CCCC(C(=O)c3ccc(Oc4ccccc4)cc3)C2)CC1 (configuration not stated) | inconclusive [inhibitor, single point] | – |
| [O-][n+]1onc2c1CCC(=N/O)/C2=N\Nc1ccccc1 | inconclusive [inhibitor, single point] | – |
| CCc1ccc(S(=O)(=O)/N=C2\C=CC(=O)c3ccccc32)cc1 | inconclusive [inhibitor, single point] | – |
| Cc1sc2ncn(CC(=O)NCCCC(=O)N3CCN(Cc4ccc5c(c4)OCO5)CC3)c(=O)c2c1C | – | inactive: -0.58% |
| CCn1c2ccc(/C(C)=N\O)cc2c2cc(/C(C)=N\O)ccc21 | – | inactive: -3.95% |
